Source: article PMC9911399, “Two distinct binding modes provide the RNA-binding protein RbFox with extraordinary sequence specificity”
Numbering of substitutions follows the chain as printed; changes in the protein carry UniProt numbers. This is one part of the list.

T1: RBFOX1 RRM RbFoxmut (Fox-RRM*) (Homo sapiens, UniProt Q9NWB1 109-208, R118D;E147R;N151S;E152T)
T1 sequence: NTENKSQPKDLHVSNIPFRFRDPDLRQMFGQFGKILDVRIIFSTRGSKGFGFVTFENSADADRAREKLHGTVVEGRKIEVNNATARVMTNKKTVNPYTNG

B1: GGGCCCA (DNA:RNA)
RNA: GGGAGACCGGAAUUCAGAUUGUCCGGGCCCAUUAAAUCCCGUCGUAGCCACCA
DNA 1: CAATCTGAATTCCGGTCTCCC
DNA 2: TGGTGGCTACGACGGGATT
B2: UCAAGAC (DNA:RNA)
RNA: GGGAGACCGGAAUUCAGAUUGUCCUCAAGACUUAAAUCCCGUCGUAGCCACCA
DNA 1: CAATCTGAATTCCGGTCTCCC
DNA 2: TGGTGGCTACGACGGGATT
B3: CUUUCUG (DNA:RNA)
RNA: B1 RNA with G25C, G26U, G27U, C28U, C30U, A31G
DNA 1: CAATCTGAATTCCGGTCTCCC
DNA 2: TGGTGGCTACGACGGGATT
B4: UAUGAGG (DNA:RNA)
RNA: B2 RNA with C26A, A27U, A28G, G29A, A30G, C31G
DNA 1: CAATCTGAATTCCGGTCTCCC
DNA 2: TGGTGGCTACGACGGGATT
B5: GUCUACA (DNA:RNA)
RNA: B1 RNA with G26U, G27C, C28U, C29A
DNA 1: CAATCTGAATTCCGGTCTCCC
DNA 2: TGGTGGCTACGACGGGATT
B6: CAAAUUC (DNA:RNA)
RNA: B2 RNA with U25C, C26A, G29U, A30U
DNA 1: CAATCTGAATTCCGGTCTCCC
DNA 2: TGGTGGCTACGACGGGATT
B7: CAUAACC (DNA:RNA)
RNA: B2 RNA with U25C, C26A, A27U, G29A, A30C
DNA 1: CAATCTGAATTCCGGTCTCCC
DNA 2: TGGTGGCTACGACGGGATT
B8: CCAUCUU (DNA:RNA)
RNA: B2 RNA with U25C, A28U, G29C, A30U, C31U
DNA 1: CAATCTGAATTCCGGTCTCCC
DNA 2: TGGTGGCTACGACGGGATT
B9: GAUGGGA (DNA:RNA)
RNA: B1 RNA with G26A, G27U, C28G, C29G, C30G
DNA 1: CAATCTGAATTCCGGTCTCCC
DNA 2: TGGTGGCTACGACGGGATT
B10: CACUUUG (DNA:RNA)
RNA: GGGAGACCGGAAUUCAGAUUGUCCCACUUUGUUAAAUCCCGUCGUAGCCACCA
DNA 1: CAATCTGAATTCCGGTCTCCC
DNA 2: TGGTGGCTACGACGGGATT
B11: GGGAUGA (DNA:RNA)
RNA: B1 RNA with C28A, C29U, C30G
DNA 1: CAATCTGAATTCCGGTCTCCC
DNA 2: TGGTGGCTACGACGGGATT
B12: AUUGCAC (DNA:RNA)
RNA: B2 RNA with U25A, C26U, A27U, A28G, G29C
DNA 1: CAATCTGAATTCCGGTCTCCC
DNA 2: TGGTGGCTACGACGGGATT
B13: CACUAAA (DNA:RNA)
RNA: B10 RNA with U29A, U30A, G31A
DNA 1: CAATCTGAATTCCGGTCTCCC
DNA 2: TGGTGGCTACGACGGGATT
B14: GGACCUG (DNA:RNA)
RNA: B1 RNA with G27A, C30U, A31G
DNA 1: CAATCTGAATTCCGGTCTCCC
DNA 2: TGGTGGCTACGACGGGATT
B15: UGCGUGG (DNA:RNA)
RNA: B10 RNA with C25U, A26G, U28G, U30G
DNA 1: CAATCTGAATTCCGGTCTCCC
DNA 2: TGGTGGCTACGACGGGATT
B16: ACGUAUG (DNA:RNA)
RNA: B10 RNA with C25A, A26C, C27G, U29A
DNA 1: CAATCTGAATTCCGGTCTCCC
DNA 2: TGGTGGCTACGACGGGATT
B17: CGAGUGG (DNA:RNA)
RNA: B10 RNA with A26G, C27A, U28G, U30G
DNA 1: CAATCTGAATTCCGGTCTCCC
DNA 2: TGGTGGCTACGACGGGATT
B18: GGCUACA (DNA:RNA)
RNA: B1 RNA with G27C, C28U, C29A
DNA 1: CAATCTGAATTCCGGTCTCCC
DNA 2: TGGTGGCTACGACGGGATT
B19: CGCUCUG (DNA:RNA)
RNA: B10 RNA with A26G, U29C
DNA 1: CAATCTGAATTCCGGTCTCCC
DNA 2: TGGTGGCTACGACGGGATT
B20: ACGGAAG (DNA:RNA)
RNA: B2 RNA with U25A, A27G, A28G, G29A, C31G
DNA 1: CAATCTGAATTCCGGTCTCCC
DNA 2: TGGTGGCTACGACGGGATT

These binders were tested against T1, RBFOX1 RRM RbFoxmut (Fox-RRM*) (assay: EMSA; HiTS-Eq, 1 nM pool, 10 min; buffer printed only for the single-RNA assays: 10 mM Tris pH 7.5, 150 mM NaCl, 3.4 mM EDTA, 0.001% NP-40, 30 C). Settings: tags: His6 N-terminal (pET28a); label: 5' 32P.
Procedure, shortened: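 Relative association constants, normalised to the cognate motif, were derived by comparing read counts of each RNA species with those of the control reaction. The RNA sequenced was the free fraction, separated by 8% native PAGE after a 10 min equilibration in 50 µL of 1 nM 5′-radiolabelled RNA (7 randomized nucleotides) with increasing concentrations of purified wild-type or mutant RbFox RRM.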

Row | Binder | binding signal
1 | B1 | 0.0935 KA relative to UGCAUGU
2 | B2 | 0.0628 KA relative to UGCAUGU
3 | B3 | 0.0626 KA relative to UGCAUGU
4 | B4 | 0.102 KA relative to UGCAUGU
5 | B5 | 0.0959 KA relative to UGCAUGU
6 | B6 | 0.0761 KA relative to UGCAUGU
7 | B7 | 0.106 KA relative to UGCAUGU
8 | B8 | 0.0865 KA relative to UGCAUGU
9 | B9 | 0.104 KA relative to UGCAUGU
10 | B10 | 0.135 KA relative to UGCAUGU
11 | B11 | 0.267 KA relative to UGCAUGU
12 | B12 | 0.0917 KA relative to UGCAUGU
13 | B13 | 0.103 KA relative to UGCAUGU
14 | B14 | 0.132 KA relative to UGCAUGU
15 | B15 | 0.138 KA relative to UGCAUGU
16 | B16 | 0.385 KA relative to UGCAUGU
17 | B17 | 0.0605 KA relative to UGCAUGU
18 | B18 | 0.0753 KA relative to UGCAUGU
19 | B19 | 0.0697 KA relative to UGCAUGU
20 | B20 | 0.0981 KA relative to UGCAUGU
